Measurements taken from the RNAGym collection of RNA variant scans (doi:10.7554/elife.90254).
The source gives no read counts; variants with many changes may rest on few reads.

B1: LINE1-mini (parent)
chain: GGCAGAGCUCAACACAGCGUGGCAAAGUGGCUGUGGCUAGACUGCC

Variants of: B1
Assay: self-cleavage, relative activity (ratio to wild type); higher = more cleavage; in vitro, sequencing; the parent is a self-cleaving ribozyme

Row | Variant | self-cleavage
1 | GGCAGAGCCCAACACAGCGCGGCAAAGUGGCUGUGGCUAGAAUGCC | 0.03
2 | GGCAGAGCUUAACACAGCGUAGCAUAGUGGCUGUGGCUAGACAGCC | 0.03
3 | GGCAGAGCUCAAGACAGCGAUGCAAAGUGGCUGUGCCUAGACUGCA | 0.02
4 | GGCAGAGGUCAACACAGCGUGUAAAAGUGGCUGUGGCUAGACUGCC | 0.01
5 | GGCAGAGCUCGACACAGCAUGGCAAAGUGGCUGUGCCUAGACUGCC | 0.01
6 | GCCAGAGCUCAACACAACGUGGCAAAGUGGCUGUGGCUAGACUUCC | 0.02
7 | GGCAGAGCUCAACACAGCGUUGAAAAGUGGCUGUGGCUAGACUACC | 0.42
8 | GGCAGAGCACAACACAGCGUGGCAGAGUGGGUGUGGCUAGACUGCC | 0.22
9 | GGCAGAGCUCAACACAGCGUGGCAAAUUGGAUGUGGCUAGGCUGCC | 0.06
10 | GACACAGCUCAACACAGCAUGGCAAAGUGGCUGUGGAUAGACUGCC | 0.2
11 | GGCAGAGCUUAACACAGUGUGGCAAAGUGGCUGCGGCUAGACUGCC | 0.04
12 | GGCAGAGCCCAACACAUCGUGGCAAAGGGGCUGAGGCUAGACUGCC | 0.02
13 | GGCACAGCUCUACACAGCGUAGCAAAGUAGCUGUGGCUAGACUGCC | 0.03
14 | GUUAGAGCACAACACAGCGUGUCAAAGUGGCUGUGGCUAGACUGCC | 0.35
15 | GGUAGAGCUCAUCACAGCGUAGCCAAGGGGCUGUGGCUAGACUGCC | 0.37
16 | GCCAGAGAUCAUCACAGCGUGGCAAAGUGGCUUUGGCUAGACUGCC | 0.16
17 | GGCAGACCUCAACACAGCGUAGCAAAGUGGCUGUAGCUAGACCGCC | 0.12
18 | GCCAGAGCUCAACACAGCGUGACAAAGUGGCUGUGUCUAAUCUGUC | 0.11
19 | GGCAGAGAUAAACACAGCGUGGUAAAGUGGCUGUGGCUAGACUGCC | 0.05

Row | Variant | self-cleavage
20 | GGCAGAGCUCAACACAUCGUGGCUAAGUGGCUGUGGCUAGACUGAC | 0.04
21 | GUCAUAGCCCAACACAGCGUGGCAAAGUCGCUGCGGCUAGACUGGC | 0.03
22 | GGCUGAGCUGAACACAGCGUGGCAAAUUGGCUGUGGCUAGACUGCC | 0.04
23 | GGCAGAGCACAAGACCGCGUGGCAAAGAGGCUGUGGCUAGACUGCC | 0.05
24 | GGCAGAGCUCGACACAGCAUGGCAAAGUGGCUGUGGGUAGACUGCC | 0.01
25 | GGCAAAGCCCAACACAUCGUGGCAAAGUGACUGUGGCUAGACUGAC | 0
26 | GCCAGAGCUUAACACAACGUGGUAAAGUGGCUGUGGCUAGACUGCC | 0.05
27 | UGCAGAGCUGAUCACAGCGUGGCAAAGUGGCUGUGGCUAGACUGCA | 0.02
28 | GGCAGAGCUCAAUACAGCGUGGCAAAGUGGCUGGGGUUAGCCUGCC | 0.17
29 | UGCGGUGCCCAACACAGCGUGGCAAACUGGCUGUGGCUCGACUGCC | 0.07
30 | GGCAGAGCUCAAUAUAGCGUGUCAAGGUGGCUGUGGCUAGACUGCC | 0.06
31 | GGCAGAGCUCAACGCAGCGUGGCAAAGUGCCUGCGGCUAGACUGCC | 0.46
32 | GGCAGAGCUCAAUUCACCGUGGCAAAGUGGCUGUGGCUAGUCUGGC | 0.04
33 | GGCAUAGCUCAACACAGCGUGGCAAAGUGGCUGUUGCUAGACUGAC | 0.05
34 | GGCAGAGCUCAAGCCAGCGCGGCAAAUUGGCUCUGGCUAGACUGCC | 0.01
35 | GGCAGAGCUCAACACGGCGUGGCAAAGUGGCUGUGGCUAGAUUGGG | 0.02
36 | GGCGGAGCUGAACACAGCGUGACAAAGGGACUGUGGCUAGACUGCC | 0.05
37 | GGCAGAGCUCACCACAGCGUGGCAAAGUUGCUGUGGUUAGACUGCC | 0.01
38 | GGCAUAGCUCAACACUGCGUGGCAAAGUGGAUGAGGCUAGACUGUC | 0.02

Row | Variant | self-cleavage
39 | GAUAGAGCUCAAUACAGCGUGGCAAAGUGGCUGUGGCUGGACUGCC | 0.16
40 | GGGAGAGCUCAGCACAGCGUUGCAAAGUGGCUGGGGCUAGACUGCC | 0.01
41 | GGCACAGCUCAACGCAGCGUGGCAAAGUGGCUGUGGCUAGCCUGCC | 0.01
42 | GGCAGAGCUCGACACAGCGUGGAAAAGUGGCUCUGGCAAGACUGCC | 0
43 | GGCAGAGCUCAACACAGCCUGGCGAAGUGGCUGUCGCUAGACUGCC | 0.14
44 | GGCAGAGCUCAACGCAGCGUGGUAAAGUGGCUGUGGCUAGACCGCC | 0.18
45 | GGCAAAGCUCAACAAAUUGAGGCAAAGUGGCUGUGGAUAGACUGCC | 0.02
46 | GCCAGAGCUCAACACAGCGUGGAAAAGUGGCUGUGCCUAGCCUGCC | 0.26
47 | GGAAGAGCUGAACACAUCGUGCCAAAGUGGAUGUGGCUAGAUUGCU | 0.01
48 | GGCAGAGCUCAACACAGCUUGGCAAAGUGGCUGUGACUAGACUGCU | 0.05
49 | GGCAGAGCUCCACACAGCGUGGCAAAGUGGCUGUGGGUGGACUGCC | 0
50 | GGCAGCGCUCAACACAGCGUGGCAAAGUGGCUGUGGCUAUAAUGCC | 0.04
51 | GGCCGAGCUCAACACAGCGUGGCAAAAUGGCUGUGGCUAGACAGCC | 0.08
52 | CGCAGAACUCAACACAGGGCGUCAAAGUGGCUGUGGCUAGACUGCC | 0.02
53 | GGCAGAGCUCAUCAAAGCGUGGCAACGUGGGUGUGGCUAGACUGCC | 0.12
54 | GGCAGAGCACAAUGCAGCCUGGCAAAGUGGCUGUGGCUAGACUGCU | 0
55 | GGCAGAGCUCACCCCAUCGUGGUAAAGUGGCUGUGACAAGAUUACC | 0.02
56 | GGCAGAGCUCAACGCAGCUUGGCAAAGUGGCUAUGGCUAGACCGCC | 0.03
